Assay results: PubChem BioAssay (EPA / NIEHS)
For part of these data: Most of the hits are listed elsewhere, so they are rarer here than in the full data. Results filed as inconclusive are left out. The list shows a part of the results, in another mix than the full data. Active and inactive are the calls of the source. How the source made its calls, unless noted: active means hit-call score of the fitted dose curve at least 0.9, where 1 is the maximum; inconclusive means response in the unintended direction; inactive means score below 0.9.

Legend:
[1] = ATG_XTT_Cytotoxicity: Cytotoxicity Assessment in the Attagene TRANS-FACTORIAL HepG2 Assay (AID 2283584)
How it was run: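 24 h chemical exposure of reporter-transfected HepG2; XTT signal loss vs DMSO indicates cytotoxicity.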

[2] = read-out: Thyroid Hormone Responsive (THRSP), THRSP (gene 7069); experiment: LTEA_HepaRG_THRSP: Life Technologies and Expression Analysis (LTEA) Assay for Thyroid Hormone Responsive (THRSP) using HepaRG (AID 2283536; active means hit-call score of the fitted dose curve at least 0.9, where 1 is the maximum; inactive means score below 0.9); conditions: actives raise or lower the signal; mRNA level, 48 h
How it was run: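 qRT-PCR read-out (Fluidigm TaqMan), housekeeping-normalized (ACTB/GAPDH/POLR2A). HepaRG, 48 h chemical exposure, 8-pt half-log series from 100 uM in 0.5% DMSO, duplicates. Bidirectional curve fit vs 0.5% DMSO baseline.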

[3] = TOX21_p53_BLA_p2_viability: Viability Assessment in the Tox21 HCT-116 p53 Agonism Beta-lactamase Assay, Phase 2 (AID 2283591);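 further: compound exposure lasted 16 h at 37 °C; actives lower the ATP signal meaning cytotoxicity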
How it was run: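 HCT116 p53-bla cells, 4000/well, dosed after 5 h plating (217-fold dilution of DMSO stocks) and incubated 16 h at 37C. Viability taken as cellular ATP by CellTiter-Glo luminescence after 30 min RT; signal loss marks cytotoxicity.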

[4] = biological target: Cellular tumor antigen p53 (Homo sapiens) (UniProt P04637); experiment: TOX21_p53_BLA_p2_ratio: Tox21 HCT-116 p53 Agonism Beta-lactamase Assay, Ratio, Phase 2 (AID 2283592)
UniProt P04637, sequence (P04637 whole entry, looked up): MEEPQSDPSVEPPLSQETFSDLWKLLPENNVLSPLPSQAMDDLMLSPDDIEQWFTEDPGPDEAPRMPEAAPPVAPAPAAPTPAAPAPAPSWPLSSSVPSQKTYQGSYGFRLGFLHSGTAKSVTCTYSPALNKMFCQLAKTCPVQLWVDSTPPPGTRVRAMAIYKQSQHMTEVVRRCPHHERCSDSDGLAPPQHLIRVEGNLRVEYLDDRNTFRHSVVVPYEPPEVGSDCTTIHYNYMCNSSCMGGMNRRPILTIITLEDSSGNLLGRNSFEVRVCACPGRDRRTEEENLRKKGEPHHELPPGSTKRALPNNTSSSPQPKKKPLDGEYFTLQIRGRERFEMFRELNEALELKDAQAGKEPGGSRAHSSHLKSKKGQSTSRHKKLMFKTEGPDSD
How it was run: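 DMSO-normalized, positive-direction endpoint derived from the 460 nm/530 nm FRET ratio in HCT116 p53 beta-lactamase reporter cells exposed 16 h at 37C and loaded with CCF4-AM for 2 h.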

[5] = biological target: Cellular tumor antigen p53 (Homo sapiens) (UniProt P04637); experiment: TOX21_p53_BLA_p4_ratio: Tox21 HCT-116 p53 Agonism Beta-lactamase Assay, Ratio, Phase 4 (AID 2283601)
How it was run: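 HCT-116 p53 beta-lactamase reporter cells (4000/well) preincubated 5 h, then compound (217-fold dilution of DMSO stock) for 16 h at 37C. CCF4-AM substrate added 2 h at room temperature; 460/530 nm emission ratio fitted upward versus DMSO.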

[6] = ACEA_AR_agonist_AUC_viability: ACEA Biosciences xCELLigence Real-Time Cell Analysis on Androgen Receptor Agonism for Viability (AID 2283775)
How it was run: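 Viability endpoint from xCELLigence impedance in 22Rv1 prostate cells at 80 h. Eight-point series, 100 uM maximum final.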

[7] = ACEA_AR_antagonist_AUC_viability: ACEA Biosciences xCELLigence Real-Time Cell Analysis on Androgen Receptor Antagonism for Viability (AID 2283776);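 further: area under impedance growth curve at 80 h after dosing as viability; hits lower the growth signal relative to DMSO meaning cytotoxicity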
How it was run: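 22Rv1 human prostate cancer cells were seeded on electrode plates, monitored overnight, then exposed to eight 1:4 dilutions from 100 uM final. Impedance-based growth kinetics at 80 h gave an AUC viability endpoint normalized to DMSO.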

[8] = CCTE_Harrill_HTTr_CellCount_MCF7: CCTE's Cell Proliferation Assessment for the High-Throughput Transcriptomics (HTTr) Platform, Harrill Lab (AID 2284012);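 further: count of Hoechst-stained nuclei per well by high-content imaging in MCF-7 cells; cells exposed to compound for six hours; intended direction is loss of nuclei count meaning fewer cells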
How it was run: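 Readout: Hoechst nuclear count by high-content imaging. MCF-7, 8-point dilution series, 6 h exposure. Bidirectional fit vs DMSO baseline.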

[9] = IUF_NPC4_neurite_length_120hr: Leibniz Research Institute for Environmental Medicine (IUF) 120-hour Neuronal Morphology Assay for Neurite Length (NPC4) (AID 2284302; active means hit-call score of the fitted dose curve at least 0.9, where 1 is the maximum; inactive means score below 0.9)
How it was run: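 hNPC spheres (0.3 mm, fetal brain GW 16-19) on PDL/laminin, DMEM:F12 3:1 + 1% N2, 37C 5% CO2; 7 concs + solvent control, day 0-5, half medium change d3; fix 120 h, TUBB3 ICC, mean neurite length um vs DMSO.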

[10] = TOX21_p53_BLA_p5_viability: Viability Assessment in the Tox21 HCT-116 p53 Agonism Beta-lactamase Assay, Phase 5 (AID 2283600)
How it was run: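 Here cell health was gauged by ATP levels in wells holding 4000 cells, each treated 16 h with DMSO-delivered compounds at 217-fold dilution; reduced luminescence marked toxicity.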

[11] = TOX21_p53_BLA_p4_viability: Viability Assessment in the Tox21 HCT-116 p53 Agonism Beta-lactamase Assay, Phase 4 (AID 2283597);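 further: hits lower the luminescence signal meaning cytotoxicity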
How it was run: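 In this multiplexed secondary endpoint, HCT116 cells (4000 per well, compound at 5 h, 16 h treatment) received CellTiter-Glo after the beta-lactamase read. Luminescence after 30 min RT reflects ATP, and falling signal marks cytotoxicity.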

[12] = CCTE_Mundy_HCI_iCellGluta_NOG_NeuriteLength: CCTE's Neurite Outgrowth Assay in iCellGluta cells for Neurite Length, Mundy Lab (AID 2284318)
How it was run: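 Automated high-content imaging of betaIII-tubulin (Alexa Fluor-488) and Hoechst-stained cells gave neurite length, normalized to the DMSO baseline.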

DIO2 (gene 1734) = experiment: CCTE_GLTED_hDIO2: CCTE's human Deiodinase 2 (DIO2) Inhibition Assay, Great Lakes Toxicology and Ecology Division (GLTED) Lab (AID 2284050)
How it was run: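 Readout: absorbance from Sandell-Kolthoff detection of free iodide released by human DIO2 during a 3 h incubation with chemical. Cell-free format, n=3; activity fitted relative to DMSO negative control.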

[13] = Tanguay_ZF_120hpf_MORT_legacy: (Legacy) Oregon State University Tanguay Lab 120 Hour Post-fertilization zebrafish Assay for Mortality (AID 2283633);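 on AC50: fitted as increase in binary mortality versus DMSO negative control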
How it was run: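 Single dechorionated Tropical 5D embryos were held with test chemical (0.64% DMSO final) from 6 to 120 hpf at 28C under foil. Deaths at 24 or 120 hpf were recorded as binary calls, analysed for increase over DMSO controls.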

[14] = CCTE_Shafer_MEA_dev_bursting_electrodes_number: CCTE's Neural Network Formation Assay for Number of Bursting Electrodes, Shafer Lab (AID 2284043);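 further: potency is for loss of bursting electrodes relative to DMSO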
How it was run: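 Rat cortical primary neurons, 48-well MEA, 16 electrodes/well; dosing DIV 0–12, re-dosed with full media change DIV 5, 9. Recordings DIV 5/7/9/12, AxIS adaptive spike detector; bursting electrode = ≥1 burst/2 min. AUC across days; loss of signal vs DMSO.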

[15] = CCTE_Shafer_MEA_dev_LDH: CCTE's Lactate Dehydrogenase Assay for Cytotoxicity in the Neural Network Formation Assay, Shafer Lab (AID 2284068);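 further: exposure for twelve days from plating with re-dosing on DIV 5 and 9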
How it was run: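 Primary rat cortical neurons were plated on PEI/laminin MEA plates and exposed from day 0 for twelve days, with compound renewed at DIV 5 and 9. Cytotoxicity was determined by spectrophotometric LDH assay relative to DMSO.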

[16] = Tanguay_ZF_120hpf_AXIS_legacy: (Legacy) Oregon State University Tanguay Lab 120 Hour Post-fertilization zebrafish Assay for Body Axis Malformation (AID 2283635)
How it was run: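 Each dechorionated embryo was exposed alone from 6 hpf, with DMSO at 0.64% (vol/vol) and trimethyltin chloride 5 uM as positive control. Axis malformation was recorded at 120 hpf unless the embryo had died.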

[17] = Tanguay_ZF_120hpf_JAW_legacy: (Legacy) Oregon State University Tanguay Lab 120 Hour Post-fertilization zebrafish Assay for Jaw Malformation (AID 2283638)
How it was run: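 Wild-type 5D embryos, chorion removed at 4 hpf, dosed singly from 6 hpf; 28C static, sealed, foil-covered, to 120 hpf. Endpoint: jaw defect yes/no (brightfield); mortality excludes scoring.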

[18] = Tanguay_ZF_120hpf_TR_legacy: (Legacy) Oregon State University Tanguay Lab 120 Hour Post-fertilization zebrafish Assay for Touch Response (AID 2283667)
[19] = tested on: SRY-box transcription factor 2 (SOX2) Protein Expression, Deisenroth Lab, SOX2 (gene 6657); experiment: CCTE_Deisenroth_DEVTOX-GLR_Endo_SOX2: CCTE's DevTox GLR-Endo Assay Evaluation of SRY-box transcription factor 2 (SOX2) Protein Expression, Deisenroth Lab (AID 2284412)
How it was run: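 Endpoint is percent SOX2-positive cells (SOX2+ count/total cells) minus 0.2% DMSO control, from high-content imaging of fixed, nuclear-stained RUES2-GLR cells. Dosing twice at 24 h intervals over 48 h differentiation, 1 nM–200 uM in 10 points.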

[20] = Tanguay_ZF_120hpf_SWIM_legacy: (Legacy) Oregon State University Tanguay Lab 120 Hour Post-fertilization zebrafish Assay for Swim Bladder Malformation (AID 2283654);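 further: swim bladder malformation in each larva scored yes or no under brightfield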
How it was run: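 Tropical 5D embryos dechorionated at 4 hpf; 1 embryo/well from 6 hpf; static, sealed, dark exposure at 28C until 120 hpf; final DMSO 0.64%; 5uM trimethyltin chloride positive control; swim bladder defect recorded yes/no; dead embryos not scored.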

[21] = Tanguay_ZF_120hpf_TRUN_legacy: (Legacy) Oregon State University Tanguay Lab 120 Hour Post-fertilization zebrafish Assay for Truncated Body (AID 2283655)
How it was run: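 Single dechorionated zebrafish embryos received test chemical from 6 hpf in 0.64% DMSO, kept at 28C. At 120 hpf, brightfield inspection noted any truncated body.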

[22] = CCTE_Simmons_CellTiterGLO_HEK293T: Viability Assessment in CCTE's Assays for Thyroperoxidase (TPO) Inhibition, Simmons Lab (AID 2283665);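 on AC50: cells exposed to compound for 24 h before readout; actives reduce ATP signal below DMSO vehicle meaning cytotoxicity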
How it was run: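 Luminescent ATP readout (CellTiter-Glo, 20 min at room temperature) after 24 hr exposure of HEK293T cells to 5 nM–87.5 uM final compound; signal loss relative to DMSO vehicle indicated cytotoxicity; dichlone titrated as positive control.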

[23] = read-out: Cytochrome P450 3A4 (Homo sapiens) (UniProt P08684); experiment: CLD_CYP3A4_24hr: CellzDirect (CLD) Gene Expression Assay for xenobiotic metabolism (CYP3A4) at 24 hours (AID 2283689)
UniProt P08684, sequence (P08684 whole entry, looked up): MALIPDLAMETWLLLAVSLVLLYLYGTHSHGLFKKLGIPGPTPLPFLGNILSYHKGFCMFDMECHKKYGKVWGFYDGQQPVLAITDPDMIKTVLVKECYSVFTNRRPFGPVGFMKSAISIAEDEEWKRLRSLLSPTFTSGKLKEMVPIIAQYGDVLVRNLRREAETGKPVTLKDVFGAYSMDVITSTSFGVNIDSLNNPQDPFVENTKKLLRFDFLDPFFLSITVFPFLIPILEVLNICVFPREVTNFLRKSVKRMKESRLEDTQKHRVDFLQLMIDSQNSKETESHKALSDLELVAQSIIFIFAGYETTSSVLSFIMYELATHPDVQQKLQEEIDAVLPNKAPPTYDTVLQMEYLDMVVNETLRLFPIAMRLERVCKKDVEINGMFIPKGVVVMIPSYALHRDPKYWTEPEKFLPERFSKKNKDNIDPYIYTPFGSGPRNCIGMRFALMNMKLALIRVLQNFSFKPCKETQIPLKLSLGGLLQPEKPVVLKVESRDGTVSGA
How it was run: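 CYP3A4 mRNA induction read by quantitative nuclease protection (chemiluminescence) 24 hr after dosing. Cultured human hepatocytes (two donor preparations) treated daily, vehicle 0.2% DMSO; phase-contrast morphology annotates cytotoxicity.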

[24] = read-out: glucuronosyltransferase (UGT1A1), UGT1A1 (gene 54658); experiment: CLD_UGT1A1_48hr: CellzDirect (CLD) Gene Expression Assay for glucuronosyltransferase (UGT1A1) at 48 hours (AID 2283709);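 further: actives increase expression relative to DMSO so potency refers to induction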
How it was run: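 Quantitative nuclease protection assay (chemiluminescent) for UGT1A1 mRNA at 48 h in human hepatocyte cultures from two donors, redosed daily with fresh solutions. Induction fitted relative to 0.2% DMSO; phase-contrast morphology annotated cytotoxicity.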

With `CC1(C)[C@H]2CC[C@]1(C)[C@H](O)C2` the outcome [1] was “inactive”.
For `CC(=O)Oc1ccccc1C(=O)O`, the outcome [2] was “inactive”.
In the case of `O=C(O)CCNC(=O)c1ccc(N=Nc2ccc(O)c(C(=O)O)c2)cc1`, the outcome [3] is reported as “inactive”.
In the case of `CC(C)(c1ccccc1)c1ccc(Nc2ccc(C(C)(C)c3ccccc3)cc2)cc1`, the outcome [3] is reported as “inactive”.
In the case of `CC(=O)O[C@H]1C(=O)[C@@]2(C)[C@H]([C@H](OC(=O)c3ccccc3)[C@]3(O)C[C@H](OC(=O)[C@H](O)[C@@H](NC(=O)c4ccccc4)c4ccccc4)C(C)=C1C3(C)C)[C@]1(OC(C)=O)CO[C@@H]1C[C@@H]2O`, the outcome [3] is reported as “inactive”.
In the case of `CCC(C)OC(=O)c1ccc(O)cc1` (stereo unspecified), the outcome [1] is reported as “inactive”.
In the case of `CC1(CN2CCC(n3c(=O)[nH]c4ccccc43)CC2)OCc2ccccc2-n2cccc21` (stereo unspecified), the AC50 [3] is reported as active: 32.6 µM.
With `O=C(O)CCC(=O)C(=O)O` the outcome [4] was “inactive”.
In the case of `CCCc1nc(C(C)(C)O)c(C(=O)OCc2oc(=O)oc2C)n1Cc1ccc(-c2ccccc2-c2nn[nH]n2)cc1`, the outcome [5] is reported as “inactive”.
For `CC(C)Nc1nc(N)nc(Cl)n1`, the outcome [6] was “inactive” and the outcome [7] was “inactive”.
For `CC(CN1c2ccccc2Sc2ccccc21)N(C)C` (stereo unspecified), the outcome [8] was “inactive”.
In the case of `COCCOCCOCCO`, the outcome [9] is reported as “inactive”.
With `CCCC(CCC)C(=O)OC1C[C@H]2CC[C@@H](C1)[N+]2(C)C` (stereo partly specified) the outcome [10] was “inactive”.
For `Cc1c(O)cccc1C(=O)N[C@@H](CSc1ccccc1)[C@H](O)CN1C[C@H]2CCCC[C@H]2C[C@H]1C(=O)NC(C)(C)C`, the AC50 [11] was active: 10.6 µM and the AC50 [12] was active: 22.7 µM.
With `CCCCCCCCCCC(CO)CCCCCCCC` (stereo unspecified) the outcome [11] was “inactive” and the outcome [7] was “inactive”.
In the case of `COC(=O)[C@]1(C)CCC[C@@]2(C)[C@H]1CC=C1C=C(C(C)C)CC[C@@H]12`, the AC50 (DIO2 (gene 1734)) is reported as active: 48.7 µM.
With `CC[C@H](C)C(=O)O[C@H]1C[C@H](O)C=C2C=C[C@H](C)[C@H](CC[C@@H](O)C[C@@H](O)CC(=O)O)[C@H]21` the outcome [13] was “inactive”, the AC50 [14] was active: 1.87 µM and the AC50 [15] was active: 0.319 µM.
With `CCc1nn(C2CCCCC2)c2cc(C3(C#N)CCC(C(=O)O)CC3)ccc12` (stereo unspecified) the AC50 [13] was active: 10.7 µM.
For `O=C(O)CCCCC(=O)O`, the outcome [16] was “inactive”.
In the case of `CC(C)c1nnc2ccc(-c3ocnc3-c3cc(F)ccc3F)cn12`, the outcome [17] is reported as “inactive”.
In the case of `CC1=C(/C=C/C(C)=C/C=C/C(C)=C/CO)C(C)(C)CCC1`, the outcome [17] is reported as “inactive”, the outcome [18] is reported as “inactive” and the AC50 [19] is reported as active: 74.8 µM.
In the case of `COc1cc(C=O)ccc1O`, the AC50 [20] is reported as active: 10.3 µM.
For `NCCO`, the outcome [20] was “inactive”.
In the case of `CC(=O)OCC(COC(C)=O)OC(C)=O`, the outcome [21] is reported as “inactive”.
In the case of `CN(C)c1ccc(O)c2c1C[C@H]1C[C@H]3[C@H](N(C)C)C(=O)C(C(N)=O)=C(O)[C@@]3(O)C(=O)C1=C2O`, the outcome [22] is reported as “inactive”.
In the case of `CCCCCCOc1ccc(N)cc1`, the AC50 [22] is reported as active: 56.3 µM.
In the case of `CCOC(=O)CCC(=O)OCC`, the outcome [18] is reported as “inactive”.
With `CCOC(=O)NCCOc1ccc(Oc2ccccc2)cc1` the outcome [23] was “inactive”.
In the case of `CCNc1nc(N)nc(Cl)n1`, the outcome [24] is reported as “inactive”.
